Screen size: about 310,000 compounds; about 2,200 (0.71%) showed an effect of 50% or more. Effects have a minus sign here. This is one part of the list.
Biological target: human ether-à-go-go-related gene (hERG) potassium channel (human, UniProt Q12809)
Experiment: primary screen, population patch clamp on CHO cells stably expressing hERG

Chain of human ether-à-go-go-related gene (hERG) potassium channel (Q12809 whole entry, looked up): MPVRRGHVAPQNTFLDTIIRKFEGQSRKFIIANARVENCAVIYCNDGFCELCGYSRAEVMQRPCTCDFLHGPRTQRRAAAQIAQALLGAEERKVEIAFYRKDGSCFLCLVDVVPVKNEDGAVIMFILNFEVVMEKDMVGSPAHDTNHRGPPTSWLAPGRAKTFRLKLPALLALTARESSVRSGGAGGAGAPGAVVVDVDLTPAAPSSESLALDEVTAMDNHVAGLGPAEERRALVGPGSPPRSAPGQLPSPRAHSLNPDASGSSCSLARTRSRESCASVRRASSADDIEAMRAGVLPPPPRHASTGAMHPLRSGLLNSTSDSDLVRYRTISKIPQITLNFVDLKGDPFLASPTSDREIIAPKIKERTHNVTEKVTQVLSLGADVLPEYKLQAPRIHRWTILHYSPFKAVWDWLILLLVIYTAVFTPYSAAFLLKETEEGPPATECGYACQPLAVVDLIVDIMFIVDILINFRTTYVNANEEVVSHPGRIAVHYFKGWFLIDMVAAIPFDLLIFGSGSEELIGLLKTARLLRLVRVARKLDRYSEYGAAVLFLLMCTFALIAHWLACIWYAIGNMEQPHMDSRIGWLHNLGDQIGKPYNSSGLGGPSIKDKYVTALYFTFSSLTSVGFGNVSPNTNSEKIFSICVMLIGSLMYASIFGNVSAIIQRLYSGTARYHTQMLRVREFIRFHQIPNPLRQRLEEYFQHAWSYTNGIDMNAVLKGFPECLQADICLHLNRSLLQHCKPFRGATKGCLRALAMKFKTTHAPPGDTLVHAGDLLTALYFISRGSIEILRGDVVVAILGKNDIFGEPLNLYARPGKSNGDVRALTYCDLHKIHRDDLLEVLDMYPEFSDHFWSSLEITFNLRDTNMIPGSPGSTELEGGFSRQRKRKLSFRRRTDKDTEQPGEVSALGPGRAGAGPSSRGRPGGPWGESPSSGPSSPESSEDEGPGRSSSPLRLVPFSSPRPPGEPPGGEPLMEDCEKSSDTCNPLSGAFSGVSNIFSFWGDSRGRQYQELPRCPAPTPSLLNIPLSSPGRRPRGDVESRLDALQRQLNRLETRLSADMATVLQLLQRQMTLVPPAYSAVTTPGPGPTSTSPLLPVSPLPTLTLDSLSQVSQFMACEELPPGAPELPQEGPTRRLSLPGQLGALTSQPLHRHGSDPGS

| Compound | hERG current change (%, negative = inhibition) at 1uM [%] |
| --- | --- |
| COc1cc(OC)c(S(=O)(=O)NCc2ccco2)cc1S(=O)(=O)NCc1ccco1 | 3.02 |
| CC(/C=N\NC(=O)c1ccc2c(c1)OCO2)c1ccccc1 (centres unmarked) | -8.04 |
| CCOC(=O)[C@@H]1[C@H]2COc3ccc(Br)cc3[C@@H]2N2C(=O)N(c3ccccc3)C(=O)[C@@]12C | 4.9 |
| Cc1cccc(C(=O)N2CCCCCC2)c1 | 9.78 |
| CS(=O)(=O)c1ccc(C(=O)N2CCC(C(=O)O)(c3ccccc3)CC2)cc1 | 15.8 |
| C[N+](C)(C)CC(=O)N/N=C/c1c2ccccc2cc2ccccc12.[Cl-] | 5.3 |
| Cc1c(S(=O)(=O)N2CCc3ccccc3C2)c(=O)n(C)c(=O)n1C | 5.86 |
| CCCCOc1ccc(CSc2nnc(C)n2N)cc1[N+](=O)[O-] | -2.42 |
| COc1cc(NC(=O)c2ccc(C(C)(C)C)cc2)c(OC)cc1NC(=O)CN1CCCCC1 | 28.7 |
| COC(=O)Nc1ccc(SCC(=O)c2cccc([N+](=O)[O-])c2)cc1 | 6.19 |
| OC1CCCN(c2c3c(nc4cc(-c5cccc(F)c5)nn24)CCCC3)C1 (centres unmarked) | 11.5 |
| CCOc1ccccc1CNCCN1CCOCC1.Cl | 14.7 |
| O=C(CSc1nnc2ccc(-c3ccccn3)nn12)NCCc1ccccc1 | 4.75 |
| Cn1c(NN)nc2ccccc2c1=O | 11 |
| CCOc1ccc(NC(=O)[C@@H](NC(=O)c2ccccc2Br)C(C)C)cc1 | 2.82 |
| Cc1ccsc1/C=N/Nc1ccc(C(=O)O)cc1 | 12.4 |
| CCn1c2ccccc2c2cc(NS(=O)(=O)c3ccccc3C)ccc21 | 10.6 |
| CCOc1ccc(N2CC(C(=O)Nc3ccc(S(=O)(=O)NCC4CCCO4)cc3)CC2=O)cc1 (centres unmarked) | 12.4 |
| COc1cccc(/C=C/C(=O)OCC(=O)Nc2ccc(N3CCOCC3)cc2)c1OC | 13.6 |

| Compound | hERG current change (%, negative = inhibition) at 1uM [%] |
| --- | --- |
| CCc1ccc(N2C(=O)CN(Cc3cc(OC)c(OC)c(OC)c3)C2=S)cc1 | 1.21 |
| COc1ccc(OC)c(C2C(C(C)=O)=C(O)C(=O)N2CCN2CCOCC2)c1 (centres unmarked) | -5.3 |
| CCOc1ccc(NC(=O)COC(=O)C2C3CC4OC(=O)C2C4C3)cc1 (centres unmarked) | 16.8 |
| O=C(NCc1ccccc1)c1ccc2nc(N3CCOCC3)sc2c1 | 7.69 |
| Cc1ccc(C2=NS(=O)(=O)N(C)C(C(=O)NCc3ccco3)=C2)cc1 | -34.6 |
| CC(C)N(Cc1nc(-c2ccc(Cl)cc2)no1)C(=O)CN(C)S(=O)(=O)c1ccc(Cl)cc1 | -5.47 |
| O=C(Nc1cc2c(cc1Br)OCCO2)c1cccnc1 | 5.77 |
| CCOc1ccc(NC(=O)c2cc3ccccc3cc2OC)cc1 | 13.8 |
| NS(=O)(=O)c1ccc(NC(=O)COC(=O)COc2ccccc2)cc1 | 14 |
| CCOc1ccc(Nc2nc(C)cc(C)c2C#N)cc1 | 11.1 |
| CCOc1ccccc1NC(=O)Cn1nnc(C(=O)Nc2ccc(C)cc2)c1N | -2.65 |
| CC(C)c1ccc(S(=O)(=O)N2CCN(CC(=O)Nc3ccc4c(c3)OCO4)CC2)cc1 | 4.61 |
| CC(C)OC(=O)Cn1cc(C#N)c2ccccc21 | 12.9 |
| COC(=O)CCCC1=CC2=CC(=O)C(C)(OC(=O)c3cccs3)C(=O)C2=CN1CCCCO (centres unmarked) | 5.62 |
| COC(=O)C1=C(c2ccc(-c3ccccc3)c(F)c2)C[C@@H]2CC[C@H]1N2C(=O)NCc1cccc2ccccc12 | 17.9 |
| Cc1nc2cc(NS(=O)(=O)c3ccccc3F)ccc2s1 | 4.83 |
| CCOC(=O)c1c(NC(=O)c2cccs2)sc(CC)c1-c1cccs1 | -10.4 |
| COc1cccc(-c2noc(N)c2C#N)c1 | 17.5 |
| Cc1ccc(NC(=O)C2C3C=CC(O3)C2C(=O)O)c(C)c1 (centres unmarked) | 12.8 |

| Compound | hERG current change (%, negative = inhibition) at 1uM [%] |
| --- | --- |
| COc1cccc(CNC(=O)c2ccc(NC3=NC4CS(=O)(=O)CC4S3)cc2)c1 (centres unmarked) | 0.376 |
| COc1nc(/C(N)=N/O)nc(N2CCCCC2)n1 | 12.3 |
| COc1ccccc1NS(=O)(=O)c1cccc(NC(=O)c2cc3ccccc3oc2=O)c1 | 19.4 |
| COc1nc(C#N)c(N2CCOCC2)o1 | 13 |
| COc1ccc(Cn2c3ccc(OC)cc3c3nc4ccccc4nc32)cc1 | 17.1 |
| Cc1ccc(CSc2[nH]c(=O)ncc2C)cc1 | 10.8 |
| Cc1cccc(C)c1NC(=O)c1cc(S(=O)(=O)N2CCOCC2)ccc1F | -0.823 |
| NCCCCCC(=O)O | 4.53 |
| COc1ccc(N(C(=O)c2ccc3c(c2)OCO3)C2C=CS(=O)(=O)C2)c(OC)c1 (centres unmarked) | -0.281 |
| c1ccc2oc(-c3nn4c(Cn5cnc6ccccc65)nnc4s3)cc2c1 | 7.33 |
| CN(C)S(=O)(=O)c1cccc(NC(=O)CCc2nc3sc4c(c3c(=O)[nH]2)CCCC4)c1 | 2 |
| Cc1cccc(NC(=O)c2ccc(S(=O)(=O)NCc3ccco3)cc2)n1 | 1.74 |
| O=C(CN1C(=O)c2ccccc2C1=O)N1CCN(c2ccccc2)CC1 | -0.891 |
| O=[N+]([O-])c1cc(S(=O)(=O)N2CCCC2)ccc1NN=C1CCCCC1 | 12.5 |
| CCc1ccc(CN(Cc2cccnc2)C(=O)/C=C/c2ccc(OC)cc2)cc1 | 12.2 |
| Cc1cc(C)n(CC(=O)c2ccccc2)c(=O)c1C#N | 13.8 |
| O=C(CCNS(=O)(=O)c1ccccc1C(F)(F)F)NCCCc1ccccc1 | 8.65 |
| O=c1c(-c2ccccc2Cl)c[nH]n1-c1ccccc1 | 7.14 |

Source: article PMC4336329 (PLoS ONE, 2015)
